Data taken from PubChem BioAssay AID1159614 (National Center for Advancing Translational Sciences (NCATS), 2016).
In all, about 45,000 compounds went through this assay and about 65 (0.1%) were called active. The call rests on the fitted dose curve; in most records, active means well fitted activation curve with a large enough effect; inconclusive means small, poorly fitted or top-dose-only effect; inactive means no such curve, though single readings can be large or run the other way. The list shows a part of the results.

Molecular target: Galactocerebrosidase (Homo sapiens) (UniProt P54803)
Sequence of UniProt P54803 (P54803 whole entry, looked up): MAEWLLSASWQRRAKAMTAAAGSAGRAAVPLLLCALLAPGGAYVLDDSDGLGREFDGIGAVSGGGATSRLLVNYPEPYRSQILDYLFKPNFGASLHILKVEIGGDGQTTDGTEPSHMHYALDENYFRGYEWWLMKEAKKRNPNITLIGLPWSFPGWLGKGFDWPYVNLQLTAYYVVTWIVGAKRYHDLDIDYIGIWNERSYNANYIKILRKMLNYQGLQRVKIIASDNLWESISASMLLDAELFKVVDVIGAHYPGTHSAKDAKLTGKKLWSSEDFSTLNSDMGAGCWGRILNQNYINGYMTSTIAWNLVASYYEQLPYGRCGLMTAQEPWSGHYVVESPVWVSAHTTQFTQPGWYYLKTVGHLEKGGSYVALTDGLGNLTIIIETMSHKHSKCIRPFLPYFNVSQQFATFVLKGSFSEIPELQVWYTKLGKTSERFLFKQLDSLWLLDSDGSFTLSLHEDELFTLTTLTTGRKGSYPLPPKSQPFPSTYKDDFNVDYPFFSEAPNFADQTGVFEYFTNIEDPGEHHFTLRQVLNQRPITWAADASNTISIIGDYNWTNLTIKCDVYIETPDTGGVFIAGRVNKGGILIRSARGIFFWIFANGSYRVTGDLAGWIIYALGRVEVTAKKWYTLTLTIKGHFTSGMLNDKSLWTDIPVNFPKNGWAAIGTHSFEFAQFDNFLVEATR
Assay: A Novel Cell-Based Assay to Identify Small Molecules for B -Galactocerebrosidase; further: 0% is about no effect; nearly all actives have a fitted effect of over 65% in size
Conditions: 145M-Twi-hGALC-G270D cells (Twitcher mouse brain line with human GALC G270D), HMU-beta-Gal fluorescence, 48 h; series mostly up to 57.5 µM; activation: at the top concentration
Outline: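 Fluorescence readout: HMU-β-gal cleavage by mutant GALC (0.1 mM final, citrate/phosphate pH 5.2 with 1 mg/mL taurocholate), stopped with carbonate/bicarbonate plus Triton X-100. Cells: murine Twitcher 145M-Twi expressing human G270D GALC; qHTS for activators.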

activation, inactive:
CC1CCN(S(=O)(=O)c2cc(C(=O)NCc3ccc(N(C)C)cc3)n(C)c2)CC1 -3.02%
CC(C)c1ccc(S(=O)(=O)c2cn(CC(=O)Nc3ccc(F)cc3)c3ccccc3c2=O)cc1 -9.91%
O=C(CSc1nc2c(c(=O)[nH]1)CCCC2)Nc1ccccc1C(F)(F)F -11.4%
Cc1ccc(-c2nc(C)c(CCNC(=O)C(=O)Nc3cc(C)ccc3C)s2)cc1 -11.4%
Cc1csc2nc(-c3ccc(NS(=O)(=O)c4cccc(F)c4)cc3)cn12 -34.1%
CCc1ccccc1NC(=O)Cn1c(=O)n(Cc2ccccc2)c(=O)c2c(C)c(C(=O)N(C)C)sc21 -11.8%
COCCCNC(=O)CCCN1C(=O)CCn2nc(-c3cccn3C)cc21 -15.4%
Cc1ccccc1CN1c2ccccc2-c2nc(SCC(=O)c3ccc(Cl)cc3)ncc2S1(=O)=O -0.525%
Cc1csc2nc(-c3cccc(NS(C)(=O)=O)c3)cn12 9.41%
CCOc1ccc(NC(=O)Cn2c(=O)cc(C)c3c(C)nn(C)c32)cc1 -5.26%
Cc1ccc(S(=O)(=O)c2c(Nc3ccc(C)c(C)c3)sc(C(=O)c3ccc4c(c3)OCO4)c2N)cc1 -26.6%
CSc1ncc(Cl)c(C(=O)Nc2c(C(=O)Nc3cccc(C)c3)oc3ccccc23)n1 -24.4%
Cc1ccccc1-c1noc(-c2ccc(N3CCC(C)CC3)c([N+](=O)[O-])c2)n1 -2.59%
Cc1c(CN(C)C(=O)c2cc(-c3ccccc3)nc3ccc(Br)cc23)cnn1C -3.75%
COc1cc(CNCCSc2nnnn2C)ccc1OCc1ccccc1C -10.5%
Cc1ccccc1CNC(=O)c1ccc(NC(=O)N2CCCCc3ccccc32)cc1 2.4%
Cc1oc2ccc(NS(=O)(=O)c3ccc(F)cc3)cc2c1C(=O)O -20.7%
CCCOc1ccc(C2=NC(c3ccncc3)=Nc3ccc(C)cc3N2)cc1 -29.9%
Cc1ccc(-c2n[nH]c3c2C(c2ccccc2Cl)N(c2ccc(C(=O)O)cc2)C3=O)cc1 (configuration not stated) -13.9%
O=C(Nc1c(C(=O)c2ccccc2)oc2ccccc12)c1ccc(F)cc1 -9.65%
Cc1ccc(C(=O)c2cn(CC(=O)NCc3ccccc3)c3nc(C)ccc3c2=O)cc1 -14%
COc1ccc(OC)c(NC(=O)N2CC(C)Oc3ccc(C)cc32)c1 (configuration not stated) -21.1%
COc1cccc(C(=O)Nc2ccc3nc4n(c(=O)c3c2)CCCCC4)c1 -13.8%
Cc1ccc(O)c(Nc2nc3ccccc3c3nncn23)c1 -10.1%
COc1ccc(C(=O)Nc2nc(-c3nnn(-c4ccc(F)cc4F)c3C)ns2)cc1 -22.1%
Cc1cc(C)n(CC(=O)Nc2cc(F)ccc2F)c(=O)c1C#N 9.06%
CC(C)c1nc2ccc(C(=O)NCCCN3CCN(c4ccccc4)CC3)cc2o1 -14.2%
